# Screen size: about 52,000 compounds; about 4,300 (8.3%) were called active. No stated cut-off is given here; in the data, active means survival mostly below about 52% (no sharp cut-off); inactive means mostly above about 56%. The list shows a part of the results.
# Tested on: DeltatarO mutant
# Experiment: S. aureus survival, RN4220 and DeltatarO strains – OD600, teichoic acid synthesis inhibitors, primary screen (AID 463173)
# Conditions: S. aureus RN4220 wild type/DeltatarO growth, OD600, 18 h, hits give low values, screened at 18.75 µg/mL (by protocol)
row,Compound,survival
1,COc1ccc(CCNC(=O)CCCCCn2c(=O)[nH]c3cc(OC)c(OC)cc3c2=O)cc1OC,inactive: 76%
2,CC(=O)Nc1nnc(SCc2cc(=O)c3cccc(C)c3[nH]2)s1,inactive: 91%
3,CCOC(=O)c1cccc(NC(c2nnc(-c3ccccc3)o2)c2ccccc2F)c1 (centres undefined),inactive: 80%
4,Cc1ccc(C)c(N2CCN(c3nc4ccccc4c4nc(-c5cccnc5)nn34)CC2)c1,inactive: 92%
5,CC(C)C(=O)Nc1cccc(NC2=NS(=O)(=O)c3ccccc32)c1,inactive: 78%
6,CSc1nnc(COc2ccc(Br)cc2)n1Cc1ccccc1,inactive: 97%
7,CCc1ccc(C2=CC(c3cccc(Br)c3)n3nnnc3N2)cc1 (centres undefined),inactive: 72%
8,Cc1ccc2c(c1)c(=O)c(C(=O)c1ccncc1)cn2CC(=O)Nc1ccccc1Cl,inactive: 67%
9,COc1ccc(-c2cc(C(F)(F)F)n3nc(C(=O)Nc4cccc(C(F)(F)F)c4)c(Br)c3n2)cc1,inactive: 73%
10,CCOC(=O)c1sc2ccccc2c1S(=O)(=O)NCc1ccc(F)cc1,inactive: 94%
11,CCOC(=O)c1ccc(NC(=O)CCn2cnnn2)cc1,inactive: 76%
12,CC1(C)CC(NC(=O)C2CCCCC2)CC(C)(C)N1,inactive: 66%
13,COC(=O)c1cnc(N2CCN(c3ccccc3OC)CC2)c2ccccc12,inactive: 94%
14,O=C(Cn1cnc2ccccc2c1=O)Nc1ccccc1,inactive: 82%
15,CC1=C(c2ccc(Cl)cc2)S(=O)(=O)N=C1N1CCN(c2cccc(C(F)(F)F)c2)CC1,inactive: 71%
16,O=S(=O)(c1ccc(Br)cc1)N1CCOCC1,inactive: 94%
17,CCSc1nc(-c2ccc(Cl)cc2)nc2c1Cc1c(CO)cnc(C)c1O2,active: 39%
18,COc1ccccc1CNC(=O)CCC1N=C2c3ccccc3N=C(SCc3ccccc3Cl)N2C1=O (centres undefined),inactive: 49%
19,Cc1cccn2c(=O)cc(COc3ccc(NC(=O)c4cccc(F)c4)cc3)nc12,active: 17%
20,CCC1CCCCN1C(=O)Cn1c(=O)n(CCCCCC(=O)NCc2ccc(F)cc2)c(=O)c2sccc21 (centres undefined),inactive: 170%

row,Compound,survival
1,O=C(O)CCn1cnc2onc(-c3ccccc3Cl)c2c1=O,inactive: 65%
2,O=C(Nc1c(C(=O)Nc2cccc(C(F)(F)F)c2)oc2ccccc12)c1cc(=O)c2ccccc2o1,inactive: 78%
3,Cn1nnc2cc(C(=O)N(CCO)c3ccccc3)ccc21,inactive: 107%
4,CCn1c(=O)c2cc(C(=O)NCCCN(C)Cc3ccccc3)sc2c2ccccc21,inactive: 106%
5,CCc1cccc(NC(=O)Cn2cc(C(=O)c3ccncc3)c(=O)c3cc(C)c(C)cc32)c1,inactive: 102%
6,C=CCN1C(=O)C(C)(C)N(C(C)=O)c2ccccc21,inactive: 113%
7,O=C(NCc1ccccc1Cl)c1ccc(CSCc2cccc(F)c2)o1,active: 17%
8,Cc1ccc(NC(c2nnc(-c3ccccc3)o2)c2ccccc2F)c([N+](=O)[O-])c1 (centres undefined),inactive: 91%
9,CC(C)(C)NC(=O)C1C2CCCCC21 (centres undefined),inactive: 72%
10,CCn1c(-c2ccc(C(C)(C)C)cc2)n[nH]c1=S,inactive: 86%
11,Cc1ccc(-n2nnnc2CNC(=O)c2ccccc2F)cc1C,inactive: 107%
12,Cc1nc(-c2ccccc2)sc1CCNC(=O)C(=O)Nc1ccc2c(c1)OCCO2,inactive: 67%
13,Cc1ccc(CNC(=O)CCCN2C(=O)c3cccnc3Oc3ccc(Cl)cc32)cc1,inactive: 99%
14,O=C(Nc1nnc(S(=O)(=O)N2CCCCCC2)s1)c1ccccc1Cl,active: 38%
15,CC(C(=O)N1CCCC1)N1CCN(c2ccc(F)cc2)CC1 (centres undefined),inactive: 87%
16,COc1cc(OC)c(NC(=O)N2CCc3c(sc4c3CCCC4)C2c2ccccc2)cc1Cl (centres undefined),inactive: 95%
17,Cc1cccc(NC(=O)C(Cc2ccccc2)n2cccc2)c1C (centres undefined),inactive: 75%
18,Nc1nc2ccc(C(=O)O)cc2s1,inactive: 79%
19,CCOc1ccc(NC(=O)c2cc3c(s2)-c2ccccc2OC3)cc1,inactive: 95%
20,OC(C#CCN1CCCC1)(c1ccccc1)C1CCCC1 (centres undefined),inactive: 73%

row,Compound,survival
1,CC(C)CC(=O)NCC1(N(C)C)CCCCC1,inactive: 84%
2,CCCc1ccc(OCC(=O)Nc2sc3c(c2C(=O)OC)CCCCC3)cc1,active: 38%
3,CCCCOc1ccccc1C(=O)Nc1nonc1-c1ccccc1,inactive: 96%
4,Cc1cccc(N(C)c2nc3ccc(C)cc3n3cnnc23)c1,inactive: 62%
5,COc1cc([N+](=O)[O-])ccc1NC(=O)N1CCN(c2cc(-c3noc(C)n3)ccc2C)CC1,inactive: 94%
6,COc1ccc(NC(=O)C(C)n2nnc3sc(-c4ccccc4)cc3c2=O)cc1Cl (centres undefined),inactive: 77%
7,CCOc1ccc(CCNC(=O)c2cc(=O)[nH]c3ccc(S(=O)(=O)N4CCCCC4)cc23)cc1OCC,inactive: 83%
8,CCOc1ccccc1CNC(=O)C1CCN(S(=O)(=O)c2c(C)noc2/C=C/c2ccc(C)cc2)CC1,inactive: 98%
9,COc1cccc(NC(=O)C(=O)NCCc2csc(-c3ccc(C(F)(F)F)cc3)n2)c1,inactive: 94%
10,Cc1cccc(-c2nc(CSCC(=O)N3CCN(c4ccccc4)CC3)c(C)o2)c1,active: 17%
11,COc1ccccc1N1CCN(c2ccc(-c3nc(-c4ccccc4C)no3)cc2[N+](=O)[O-])CC1,inactive: 80%
12,COc1ccccc1Cc1nc2ccccc2nc1SCC(=O)N1CCc2ccccc21,inactive: 58%
13,CCOC(=O)c1ccc(NC(=O)CSc2nccn2-c2ccc(OCC)cc2)cc1,inactive: 70%
14,CCC(C)NC(=O)C1CCN(C(=O)c2ccc(-n3ccc4ccccc43)s2)CC1 (centres undefined),inactive: 81%
15,COc1ccccc1CCNC(=O)Cc1c(C)c2c(cc(C)c3c(C)c(C)oc32)oc1=O,inactive: 89%
16,FC(F)(F)c1cccc(-c2nnn3c2nc(NC2CCCCC2)c2ccccc23)c1,active: 13%
17,Cc1cccc(N2CCN(C(=O)Cn3cnc4sc(C)c(S(=O)(=O)N5CCN(c6ncccn6)CC5)c4c3=O)CC2C)c1 (centres undefined),active: 67%
18,CCOc1ccc(S(=O)(=O)c2c[nH]c3ccccc3c2=O)cc1,inactive: 85%
19,COc1ccc(CCNC(=O)C2CCN(c3ncnc4c3nc3n4CCCCC3)CC2)c(OC)c1,inactive: 82%

# From PubChem BioAssay AID463173 (ICCB-Longwood Screening Facility, Harvard Medical School, 2010)
